# The campaign covered roughly 150,000 compounds. About 540 (0.36%) showed an effect of 50% or more. The list shows a part of the results.
# Tested on: Plasmodium falciparum
# Assay: Primary screen in NF54 nanoGlo assay, in single point, at 2uM, 72h; a lower Z score goes with more inhibition
# Type: functional, Erythrocyte
# Conditions: timepoint 72 hour
SMILES,% Inhibition,Z score
CCC(=O)N1CCc2cc(N3C[C@@H](C(=O)Nc4cc(Cl)ccc4OC)CC3=O)ccc21,-4%,0.7
FC1(F)CCC(Cn2ccnn2)CC1,10%,-2.01
COc1cccc(CNC(=O)CCc2c(C)nn(-c3cc(N4CCOCC4)ncn3)c2C)c1,-5%,1.06
CCc1onc(C)c1C(=O)N(C)C[C@H]1CCCCO1,-9%,1.29
COc1ccccc1[C@@H]1C=C(C(=O)O)Nc2c(C(=O)Nc3cccc(C)c3)cnn21,5%,-0.57
CCc1ccsc1C(=O)N[C@H](C)CC(=O)O,-5%,0.78
CCONC(=O)NCCc1ncc(C)s1,-4%,0.64
Cc1noc(C)c1S(=O)(=O)N(C)C1CCCCCC1,-9%,1.29
COCc1cc(C)n(CC#N)c(=O)c1C#N,38%,-1.29
Cc1c(Cl)cccc1S(=O)(=O)N1CC[C@H](n2cc(-c3ccccc3)nn2)C1,-12%,1.34
COCCCN1CC(=O)N[C@@H]2CN(C(=O)CCc3cccnc3)CC[C@@H]2OCc2cccc(c2)Oc2cc(ccc2OC)C1,39%,-5.44
CCOC(=O)C(=O)c1cn(C2OCC(OC(C)=O)C(OC(C)=O)C2OC(C)=O)c2ccccc12 (stereo not drawn),-15%,2.03
O=C(NC1CCCCC1)c1ccc2c(c1)NC(=O)[C@@H]1CCCCN21,3%,-0.58
Cn1c(-c2ccc(-c3ccccc3)cc2)cn2cc(-c3ccc(F)cc3)nc12,-38%,4.43
COc1cc(NC(=O)[C@@H](Cc2ccccc2)n2c(=O)[nH]c3ccccc3c2=O)cc(OC)c1,-13%,1.64
O=C(c1ccco1)N1CCN(C(=O)c2ccc(CS(=O)(=O)c3ccc(Br)cc3)o2)CC1,-4%,0.65
CCN(Cc1ccncc1)C1CN(Cc2cccc(F)c2)C1,5%,-0.87
CC(C)N(C)c1nc(N2CCCCC2)nc2c1CN(C(=O)c1cccc(F)c1)CC2,-25%,2.7
COc1ccc(S(=O)(=O)N2CCOC[C@H](OC)C2)cc1,-8%,1.06
C#CCn1ccc(O)c(Cc2ccccc2)c1=O,47%,-6.02
COC(=O)C(NC1CCc2nc(C)nn2C1)c1ccccc1C (stereo not drawn),2%,-0.3

SMILES,% Inhibition,Z score
CC(C)N(Cc1ccccc1)C(=O)CN1CCC[C@H]1c1ccc2c(c1)OCCCO2,2%,-0.32
Cn1cc(-c2nc(C(=O)NCc3ccccc3F)cs2)c2cccnc21,-16%,2.78
C#Cc1cccc(N=C(NCCS(=O)(=O)CC)Nc2ccn[nH]2)c1,-7%,0.95
Cc1cc(C)nc(O[C@H]2CCCN(C(=O)C(C)(C)Oc3ccc(Cl)cc3)C2)n1,3%,-0.46
CCc1nc(C)sc1CNc1nc(-c2cccnc2)nc2c1cnn2C,-5%,0.68
CC1CCC(OC2CCN(c3ccc4nnnn4n3)CC2)CC1 (stereo not drawn),-3%,0.26
OCCn1ccc([C@H]2CCCN(Cc3cc4c(cc3Cl)OCO4)C2)n1,-8%,0.97
OCc1ccc(CNCCCNc2ccccc2)o1,-9%,1.25
Cc1c(S(=O)(=O)N2CCOCC2)c(C)n(C)c1C(=O)N1CCCC[C@@H]1C,3%,-0.54
COc1ccc(OCC(=O)Nc2ccc3c(c2)NC(=O)[C@H](C)O3)cc1,-3%,0.48
COc1ccc(-c2c(C)nn3c2NC(=O)CCC3=O)cc1S(=O)(=O)N1CCCc2ccccc21,-11%,1.36
COc1ccccc1N1CCN(C(=O)c2cc(-c3ccc(F)cc3)[nH]c2C)CC1,-2%,0.3
CCC[C@@H](C(=O)NCC(=O)OCC)c1ccccn1,-37%,4.33
C[C@H]1CCC(=O)N1c1ccc(NC(=O)c2cnc[nH]2)cc1,1%,-0.2
CC(=O)N(C)c1cccc(NC(=O)N[C@@H](C)C2=CCCCC2)c1,-17%,1.51
CCN(C[C@H]1CCOC1)C(=O)Cn1nnc2ccccc21,1%,-0.11
CCn1c(-c2cc(NC(=O)Cc3ccc(F)cc3)[nH]n2)cc2ccc(OC)cc21,6%,-1.06
CCC[C@@H](CCC(=O)Nc1ccc(OCC)cc1)C(=O)O,-8%,0.89
CC1(C)CN(C(=O)CCc2ccco2)CC[S@+]1[O-],-6%,1.22
Cc1cccc(NC(=O)C2CCN(S(=O)(=O)c3cc(C(=O)N4CCOCC4)cs3)CC2)c1C,-6%,0.99
CC[C@@H](CC#N)NC(=O)c1[nH]cnc1C(C)(C)C,0%,-0.03

SMILES,% Inhibition,Z score
Cc1c(F)cccc1NC(=O)N[C@H]1CCN(c2ccc(F)cc2)C1=O,-3%,0.48
C[C@H]1CCCN(CCCNC(=O)C2CCN(c3ncnc4c3nc3n4CCCCC3)CC2)C1,-7%,1.2
Cc1ccc(OC2CN(CC[C@H](O)c3ccccc3)C2)cc1,0%,0.06
O=c1cc(O)c2ccccc2n1-c1ccccc1,3%,-0.43
CCOc1ccccc1CNS(=O)(=O)c1cc(-c2cnn3c(C)cc(C)nc23)ccc1C,-11%,1.05
CC1CCN(c2nc3c(c(Oc4cccc(F)c4)n2)CN(Cc2ccccn2)CC3)CC1,46%,-2.5
Cc1nc(-c2c(-c3ccccc3)ncn2C[C@H]2COc3ccccc3O2)c[nH]1,-6%,0.59
CCC1CCN(C(=O)c2cn3c(n2)C[C@@H](C)CC3)CC1,-11%,1.27
CCn1cncc1CNC(=O)CCc1cn[nH]c1,11%,-2.12
CCC[C@H](Nc1nc(C)nc2ncccc12)c1cccs1,-10%,1.87
O=S(=O)(N1CCCCC1)N(CCOc1ccccc1)C[C@H]1CCCO1,-13%,1.97
CCN1C(=O)COc2cc(NC(=O)N[C@@H](C)c3ncnn3CC)ccc21,5%,-1.01
CC(C)c1ocnc1C(=O)N1CCC(NC(=O)c2ccoc2)CC1,-1%,0.11
O=C(NC[C@H]1COCCO1)c1ccccc1NC(=O)c1nsc2ccccc12,-3%,0.51
COc1ccccc1NC(=O)C(=O)N1CCOCC1,2%,-0.47
CCCn1cnnc1CNC1CCN(c2nc3ccccc3o2)CC1,-2%,0.25
Cc1nn(C(C)C)cc1CN1CCCC2(CCCCO2)C1C#N (stereo not drawn),-7%,0.81
O=C(CCc1ccc(S(=O)(=O)N2CCCCCC2)cc1)Nc1ccc(Br)cc1F,-14%,1.2
COc1ccc(CCNC(=O)c2c(C)noc2-c2cccnc2)cc1OC,-13%,2.17
COc1ccc(CN2CN=C(NS(C)(=O)=O)NC2)cc1OC,6%,-0.73
Cc1ncsc1C(=O)OC1CCN(CC(F)(F)F)CC1,-7%,1.05

SMILES,% Inhibition,Z score
CC(C)(NC(=O)c1ncoc1C1CC1)c1cccs1,2%,-0.33
NC(=O)c1ccnc(N2CCC[C@]3(CCC(=O)N(C4CCCC4)C3)C2)c1,-7%,1.32
O=C1CN(CCc2cccs2)CCN1c1cccs1,5%,-0.75
Fc1cnccc1NCc1c[nH]nc1-c1cccnc1,-38%,4.46
COc1ccc(CCC(=O)Nc2ccc(Cn3cnc(C(=O)Nc4cccc(Cl)c4)c3)cc2)cc1,-7%,0.85
O=C(Cc1cccc(Br)c1)NCC1(O)CCC1,-9%,1.19
c1cnn(-c2ccc(-c3cnc4ncnn4c3)cc2)c1,-10%,0.96
COc1ccc(Cl)cc1N1C(=O)C2C(CC(N)=O)NC3(C(=O)Nc4ccccc43)C2C1=O (stereo not drawn),2%,-0.21
CC(C)n1cnnc1CN1CC[C@](C)(O)[C@@H](O)C1,-10%,1.49
CCCc1noc(CN(CC)Cc2ccncc2)n1,12%,-1.57
O=C(NC1CCCCC1)Oc1cc2oc(=O)sc2cc1Br,27%,-3.06
Cc1cc(NC(=O)CC2CCC2)nc(=O)[nH]1,-5%,0.65
COc1ccc2[nH]c3c(c2c1)CCN(C)C31CCN(C(=O)c2cn(C)cn2)CC1,-16%,2.18
CC(C)OC[C@@H](O)CN(Cc1c(C(C)C)nn(-c2ccccc2)c1Oc1cccc(F)c1)C1CC1,-1%,0.11
C=C(C)COc1ccccc1NC(=O)[C@@H]1CCCN1CC,-12%,2.23
C[C@H]1CN(C(=O)NCc2nc3ccccc3s2)CCO1,-4%,0.82
COC(=O)CCN(CC(C)C)C(=O)c1cccc(NC(C)=O)c1,10%,-1.04
CCC1=NO[C@@H](CNC(=O)c2c[nH]nc2-c2ccccc2)C1,-8%,1.17
Cc1cc(C)c(NC(=O)[C@@H]2CN(S(=O)(=O)c3ccccc3)c3cc(C(C)(C)C)ccc3O2)c(C)c1,-20%,2.59
O=C(NCc1ccc(OCc2cccnc2)cc1)c1ccc(Br)cc1F,-3%,0.47
O=C(Nc1ccc(N2CCCN(Cc3ccc(Cl)c(Cl)c3)C2=O)cc1)OCc1ccccc1,6%,-1.2
